Consider 22 molecules from publication PMC12040169 (PLOS Biology, 2025).

Some of the results follow.

The experiment deals with T1, C. trachomatis L2/434/Bu expressing GFP (CTL2-GFP).
T1 construct: L2/434/Bu GFP intracellular growth in HeLa cells
Details: species or system HeLa; C. trachomatis total inclusion area by high-content imaging, normalised to DMSO. The note with it: total inclusion area; 28.5 h, 10 µM; inhibitor. The method in brief:
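Host cell viability was gauged from Hoechst-stained nuclei counts, while chlamydial growth was taken from total inclusion area and inclusion number per well. Cells were fixed and imaged by high-content microscopy once bulk GFP and resorufin fluorescence had been measured.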
Regarding `CN(c1ccc(C(=O)Nc2cccc(C(=O)O)c2)cc1)S(=O)(=O)c1ccccc1` [CBK265729], the “% of control remaining” value stood at 116.596. The value for `Cc1cc(C)n(-c2ccc3nnc(CCCC(=O)O)n3n2)n1` [CBK307630] was 93.2015; that for `c1ccc2c(c1)CCC[C@H]2Oc1cncc(N2CCNCC2)n1` [CBK172388G] was 67.3061. The value for `CC(C)Nc1nccnc1Sc1cccc(O)c1` [CBK093725] was 102.212; that for `Cc1cc(=O)oc2cc(OC(C)C(=O)Nc3sc4c(c3C(N)=O)CCCC4)ccc12` (stereo not shown) [CBK268050] was 95.1562; that for `O=C(c1cc(F)cc(F)c1)N1CCC(c2n[nH]c3ncccc23)CC1` [CBK284909] was 98.5967.

On to `Cc1cccn2c(=O)cc(CN3CCc4c(nc(C5CC5)n4C)C3)nc12` [CBK305256], for which the “% of control remaining” value is on record as 24.4101. For the molecule `O=[N+]([O-])c1ccccc1NC1OCC(O)C(O)C1O` (stereo not shown) [CBK262032], the “% of control remaining” value was determined as 95.154.

Turning to `COC(=O)c1ccc2cccnc2c1O` [CBK017876], the “% of control remaining” value is recorded as 25.5269.

For `CCN(CC)CCN(Cc1ccc2c(c1)OCO2)C(=O)Nc1ccc(C)cc1` [CBK159059], the “% of control remaining” value was 73.9301. `CCCC(NC(=O)C1C=CCN1S(C)(=O)=O)c1cccs1` (stereo not shown) [CBK282668]: the “% of control remaining” value is on record as 96.7012. On to `O=C(OCc1ccccc1)N1CCC(C2OCc3ccc(-c4ccc(Cl)c(Cl)c4)cc3O2)CC1` (stereo not shown) [CBK144646], for which the “% of control remaining” value was 86.3484. As to `COc1ccc(CCCCN(C(=O)C(N)Cc2ccccc2)c2cccc3ccccc23)cc1OC` (stereo not shown) [CBK001032T], the “% of control remaining” value came out at 71.6183. Consider `COc1ccc(S(=O)(=O)N2CCN(C(C(=O)O)c3ccc(C)cc3)CC2)cc1` (stereo not shown) [CBK296753], for which the “% of control remaining” value was 81.9926. On to `FC(F)(F)c1cc(-c2cn3ccnc3c(NC3CCOCC3)n2)cc(C(F)(F)F)c1` [CBK037278], for which the “% of control remaining” value is given as 84.1892. For `O=C(Cc1ccc(Cl)c(Cl)c1)N1CCN(C(=O)c2ccco2)CC1` [CBK144454] the value was 64.8236; for `Cc1c(Nc2ncnc3sc4c(c23)CCCC4)c(=O)n(-c2ccccc2)n1C` [CBK093912], 76.7846; for `COc1cc(-c2cncc(NCC(C)(C)CO)n2)cc(OC)c1OC` [CBK037854], 102.855. For the molecule `CC(=O)OC1CCn2c1nc1cc(C(F)(F)F)ccc12` (stereo not shown) [CBK115367], the “% of control remaining” value is listed as 97.2922. For `CCOC(=O)c1ccccc1NC(=O)CCC(=O)O` [CBK261631] the value was 100.102; for `CC(=O)N1CCN(c2c(-c3ccccc3)nnc3ccccc23)CC1` [CBK066889], 99.3753. Take `Nc1nnc(SCC(=O)N2CCN(C(c3ccccc3)c3ccccc3)CC2)s1` [CBK266320]: the “% of control remaining” value came out at 117.245.
